Reference: the supplement of paper PMC4967469

Assays:
Assay in all cases: Viability of human cancer cell lines after 72 h of drug (GDSC screen)
[1] = compound: CC(=O)O[C@@]12CO[C@@H]1C[C@H](O)[C@@]1(C)C(=O)[C@H](O)C3=C(C)[C@@H](OC(=O)[C@H](O)[C@@H](NC(=O)OC(C)(C)C)c4ccccc4)C[C@@](O)([C@@H](OC(=O)c4ccccc4)[C@H]21)C3(C)C [Docetaxel]; conditions: top dose 0.0125 µM
Procedure: (§1)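 Human cancer cell lines in 384-well plates, medium with 10% serum, drug for 72 h over a 256-fold dose range (nine 2-fold or five 4-fold steps up to the top dose). Adherent lines were fixed and stained with the nucleic acid dye Syto60, suspension lines read with resazurin; signal relative to control wells, capped at 0 and 100%. One two-parameter sigmoid per drug and line, fitted in a mixed model over all curves with the slope shared within a line.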

[2] = compound: CC1(C)CNc2cc(NC(=O)c3cccnc3NCc3ccncc3)ccc21 [AMG-706]; conditions: top dose 2 µM; top dose inferred
Procedure: as §1

[3] = compound: CC1=C2C[C@H]3[C@@H](CC=C4C[C@@H](O)CC[C@@]43C)[C@@H]2CC[C@]12O[C@@H]1C[C@H](C)CN[C@H]1[C@H]2C [Cyclopamine]; conditions: top dose 16 µM; top dose inferred
Procedure: as §1

[4] = compound: CCOc1nc(NC(=O)Cc2cc(OC)ccc2OC)cc(N)c1C#N [JNK Inhibitor VIII]; conditions: top dose 10 µM; top dose inferred
Procedure: as §1

[5] = compound: CN1CCN(c2ccc([N+](=O)[O-])c3no[n+]([O-])c23)CC1 [NSC-207895]; conditions: top dose 20 µM; top dose inferred
Procedure: as §1

[6] = compound: COC(=O)[C@H](CCSC)NC(=O)c1ccc(NC[C@@H](N)CS)cc1-c1ccccc1 [FTI-277]; conditions: top dose 1.024 µM; top dose inferred
Procedure: as §1

[7] = compound: COCC[n+]1c2c(n(Cc3cnccn3)c1C)C(=O)c1ccccc1C2=O [YM155]; conditions: top dose 5.12 µM
Procedure: as §1

[8] = compound: COc1cc(N2CCC(N3CCN(C)CC3)CC2)ccc1Nc1ncc(Cl)c(Nc2ccccc2S(=O)(=O)C(C)C)n1 [NVP-TAE684]; conditions: top dose 2 µM
Procedure: as §1

[9] = compound: C[C@]1(O)C[C@@H](c2nc(-c3ccc4ccc(-c5ccccc5)nc4c3)c3c(N)nccn32)C1 [OSI-906]; conditions: top dose 2.56 µM; top dose inferred
Procedure: as §1

[10] = compound: Cc1ccc(C(=O)N(CCCN)[C@@H](c2nc3cc(Cl)ccc3c(=O)n2Cc2ccccc2)C(C)C)cc1 [SB-715992]; conditions: top dose 0.128 µM; top dose inferred
Procedure: as §1

[11] = compound: Cc1sc2c(c1C)C(c1ccc(Cl)cc1)=N[C@@H](CC(=O)OC(C)(C)C)c1nnc(C)n1-2 [JQ1]
Procedure: as §1

[12] = compound: O=C(/C=C/c1cccc(S(=O)(=O)Nc2ccccc2)c1)NO [Belinostat]; conditions: top dose 20 µM; top dose inferred
Procedure: as §1

[13] = compound: OCCCNc1cc(-c2ccnc(Nc3cccc(Cl)c3)n2)ccn1 [CGP-60474]; conditions: top dose 0.256 µM; top dose inferred
Procedure: as §1

[14] = compound: c1ccc2c(CCNc3ccc(Nc4ccncc4)cc3)c[nH]c2c1 [JNJ-26854165]; conditions: top dose 10 µM
Procedure: as §1

[15] = top dose 1 µM, screen: GDSC drug entry 1218, top dose inferred
[16] = top dose 2.56 µM, screen: GDSC drug entry 163

Row | Cell Line | AUC [1] | IC50 [1] [nM] | AUC [2] | IC50 [2] [nM] | AUC [3] | IC50 [3] [nM] | AUC [4] | IC50 [4] [nM] | AUC [5] | IC50 [5] [nM] | AUC [6] | IC50 [6] [nM] | AUC [7] | IC50 [7] [nM] | AUC [8] | IC50 [8] [nM] | AUC [9] | IC50 [9] [nM] | AUC [10] | IC50 [10] [nM] | AUC [11, 15] | IC50 [11, 15] [nM] | AUC [11, 16] | IC50 [11, 16] [nM] | AUC [12] | IC50 [12] [nM] | AUC [13] | IC50 [13] [nM] | AUC [14] | IC50 [14] [nM]
1 | MHH-PREB-1 (B-cell leukaemia, suspension) | 0.884 | 11.1 | 0.988 | > 2000 | 0.904 | > 16000 | 0.989 | > 10000 | 0.879 | 16900 | 0.988 | > 1020 | 0.028 | < 20 | 0.96 | > 2000 | 0.984 | > 2560 | 0.57 | 12.1 | 0.773 | 349 | 0.732 | 674 | 0.163 | 136 | 0.707 | 57 | 0.86 | 7020
2 | MOLP-8 (myeloma, suspension) | 0.943 | > 12.5 | 0.986 | > 2000 | 0.987 | > 16000 | 0.986 | > 10000 | 0.837 | 12700 | 0.968 | > 1020 | 0.024 | < 20 | 0.678 | 385 | 0.551 | 219 | 0.333 | 2.79 | 0.703 | 227 | 0.436 | 108 | 0.122 | 82.7 | 0.429 | 10.3 | 0.939 | > 10000
3 | MONO-MAC-6 (acute myeloid leukaemia, suspension) | 0.885 | > 12.5 | 0.971 | > 2000 | 0.975 | > 16000 | 0.982 | > 10000 | 0.687 | 4310 | 0.967 | > 1020 | 0.044 | < 20 | 0.637 | 307 | 0.944 | > 2560 | 0.654 | 22 | 0.813 | 581 | 0.8 | 1320 | 0.384 | 589 | 0.735 | 78.3 | 0.843 | 7680
4 | MY-M12 (leukaemia, suspension) | 0.937 | > 12.5 | 0.98 | > 2000 | 0.894 | > 16000 | 0.98 | > 10000 | 0.724 | 5950 | 0.974 | > 1020 | 0.028 | < 20 | 0.979 | > 2000 | 0.92 | > 2560 | 0.684 | 28.2 | – | – | 0.676 | 530 | 0.112 | < 78.1 | 0.645 | 42.8 | 0.907 | > 10000
5 | NCI-H187 (small cell lung carcinoma, suspension) | 0.962 | > 12.5 | 0.987 | > 2000 | 0.988 | > 16000 | 0.985 | > 10000 | 0.795 | 10200 | 0.988 | > 1020 | 0.037 | < 20 | 0.88 | > 2000 | 0.934 | > 2560 | 0.96 | > 128 | 0.985 | > 1000 | 0.938 | > 2560 | 0.341 | 435 | 0.834 | 186 | 0.948 | > 10000
6 | NCI-H209 (small cell lung carcinoma, suspension) | 0.862 | 11.9 | 0.982 | > 2000 | 0.982 | > 16000 | 0.977 | > 10000 | 0.98 | > 20000 | 0.986 | > 1020 | 0.981 | > 5120 | 0.95 | > 2000 | 0.965 | > 2560 | 0.883 | > 128 | 0.909 | > 1000 | 0.897 | > 2560 | 0.983 | > 20000 | 0.817 | 156 | 0.829 | 6810
7 | NCI-H226 (lung squamous cell carcinoma, adherent) | 0.764 | 4.78 | 0.987 | > 2000 | 0.986 | > 16000 | 0.987 | > 10000 | 0.982 | > 20000 | 0.985 | > 1020 | 0.055 | < 20 | 0.98 | > 2000 | 0.896 | > 2560 | 0.877 | > 128 | 0.986 | > 1000 | 0.89 | > 2560 | 0.323 | 389 | 0.866 | 247 | 0.842 | 7570
8 | NCI-H510A (small cell lung carcinoma, semi-adherent) | 0.909 | > 12.5 | 0.99 | > 2000 | 0.988 | > 16000 | 0.99 | > 10000 | 0.733 | 5390 | 0.987 | > 1020 | 0.022 | < 20 | 0.81 | 949 | 0.985 | > 2560 | 0.915 | > 128 | – | – | 0.854 | 1760 | 0.244 | 248 | 0.763 | 85.2 | 0.956 | > 10000

IC50 is the fitted dose that halves viability relative to control wells, and lower means more sensitive; a fit beyond the top or the lowest dose is shown as a bound at that dose. AUC sums up the same curve from the lowest dose to the 256-fold higher top dose; it is 1 without any effect and falls as sensitivity rises. For some assays here: A top dose marked as inferred was calculated from the reported fits. For some assays here: Drugs with an entry number were screened twice under separate entries, and the two screens often disagree.
